Experimental data from PubChem BioAssay AID1347120 (National Center for Advancing Translational Sciences (NCATS), 2019).
Among all 390,000 compounds or so, about 930 (0.24%) were called active. Inconclusive results, whose numbers are uncertain, are shown with a selection of clear calls. Calls follow the shape of the dose curve; as a rule, active = well fitted activation curve with a large enough effect; inconclusive = small, poorly fitted or top-dose-only effect; inactive = no such curve, though single readings can be large or run the other way. Potencies of inconclusive entries are doubtful fits and often do not repeat.

Test: qHTS for Suppressors of FUS Proteinopathy: Primary screen using FUS-linked yeast assay; also: nearly all actives have a fitted effect of over 55% in size;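 as to growth rescue (activation): plate controls were DMSO vehicle for no effect and reference control for full effect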
Conditions: S. cerevisiae FUS-expressing, OD600, 24 h; Potency: growth rescue; growth rescue (activation): at 76.6 µM (top of the series)
Procedure, shortened: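 Compound concentration series was pinned onto galactose-induced FUS-expressing yeast seeded at OD 0.005. Plates sat 24hr at 30C; absorbance at 600 nm gave growth. DMSO served as background control.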
Potency is read from the fitted curve at half-maximal effect; tags tell the direction and shape of the fitted curve.

SMILES | Potency | growth rescue (activation)
CC1CCc2c(sc(NC(=O)CN3CCN(C(=O)c4ccco4)CC3)c2C#N)C1 (stereo unspecified) | inconclusive: 39.8 µM [activator, single point] | –
Cc1cc(=O)[nH]c(N/N=C/C2=C(N3CCOCC3)C(=C\c3ccc(Cl)cc3)/CC2)n1 | inconclusive: 35.5 µM [activator, single point] | –
COc1cccc2sc(Nc3nnc(-c4ccc(F)cc4)o3)nc12 | – | inactive: 25.9%
CCCCc1c(CCC)c(=N)c2ccccc2n1C | – | inactive: -3.14%
CCn1nccc1C(=O)Nc1ccc(S(=O)(=O)NC23CC4CC(CC(C4)C2)C3)cc1 | inconclusive: 31.6 µM [activator, partial curve, poor fit] | –
CCOC(=O)C1=C(N)N2C(=O)C(C)SC2=C(C(=O)OCC)C1c1ccc(O)cc1 (stereo unspecified) | inconclusive: 4.47 µM [activator, partial curve, poor fit] | –
CCOC(=O)N1CCN(C(=O)c2oc3ccc(S(=O)(=O)N4CCOCC4)cc3c2C)CC1 | – | inactive: 25.3%
O=C1N[C@@H](Cc2ccccc2)C(=O)N2[C@@H]3N(S(=O)(=O)c4ccc(F)cc4)c4ccccc4[C@]3(Br)C[C@@H]12 | inconclusive: 31.6 µM [activator, single point] | –
O=C(Nc1ccc(NC(=O)c2cccc([N+](=O)[O-])c2)cc1)c1cccc([N+](=O)[O-])c1 | inconclusive: 3.98 µM [activator, full curve, poor fit] | –
COc1ccc2c(c1)c(CCNNC(=O)C(C)(C)C)c(C)n2C(=O)c1ccc(Cl)cc1 | inconclusive: 28.2 µM [activator, single point] | –
O=C(Nc1ccc2nc(SCC(=O)N3CCOCC3)sc2c1)c1cccc(Br)c1 | inconclusive: 25.1 µM [activator, single point] | –
COCCN(C(=O)COC(=O)C12CC3CC(CC(C3)C1)C2)c1c(N)n(Cc2ccccc2)c(=O)[nH]c1=O | inconclusive: 35.5 µM [activator, partial curve, poor fit] | –
CC12C(=O)N(c3cccc(OC(=O)c4ccco4)c3)C(=O)C1C1c3ccccc3C2c2ccccc21 (stereo unspecified) | inconclusive: 15.8 µM [activator, partial curve] | –
CCOC(=O)[C@]12CCCC=C1N(Cc1ccc(Cl)cc1Cl)C(=O)[C@H](CC(=O)NCC1CCCCC1)C2 | inconclusive: 14.1 µM [activator, partial curve, poor fit] | –
CCOc1ccc(NC(=O)CSc2ccc(-c3cccnc3)nn2)cc1 | inconclusive: 3.98 µM [activator, full curve] | –
CN(CC(=O)Nc1cccc(F)c1)C(=O)c1ccccc1Sc1ccccc1C#N | inconclusive: 31.6 µM [activator, single point] | –
